# In a collection of fitness landscapes (doi:10.1016/j.celrep.2020.107928):
# In all, about 81,000 sequences were measured (“one-hybrid fitness for binding parS DNA”: median about -0.17, highest 2% from about 0.51 on). The list shows a part of the results.
# B1: Caulobacter ParB omega fusion; a variant is named by its letters at X, in order, B8GW30 (parent)
# chain: MESVVVGEPGMSEGRRGLGRGLSALLGEVDAAPAQAPGEQLGGSREAPIEILQRNPDQPRRTFREEDLEDLSNSIREKGVLQPILVRPSPDTAGEYQIVAGERAWRAAQRAGLKTVPIMVRELDDLAVLEIGIIENVQRADLNVLEEALSYKVLMEKFERTQENIAQTIGKSXSHVANXMRLLXLPDEVQSYLVSGELTAXHARAIAAAADPVALAKQIIEGGLSVRETEALARKAPNLSAGKSKGGRPPRVKDTDTQALESDLSSVLGLDVSIDHRGSTGTLTITYATLEQLDDLCNRLTRGI
# Variants of: B1
# Experiment: one-hybrid fitness for binding parS DNA (scaled: cognate 1, non-cognate 0); higher = stronger binding
# Details: with parS DNA site
# Method in brief: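 Pre- and post-selection plasmids were Illumina-sequenced, three replicate libraries were pooled, and any variant with under 10 reads was removed. The libraries were Caulobacter ParB with four specificity codons randomised, selected in E. coli USO through a HIS3 reporter whose site is 19 bp from the promoter. Cells grew 48 hours at 37°C on M9 without histidine, with 0.1 mM IPTG and 5 mM 3-AT. Fitness is the log change in variant-to-wild-type read ratio, rescaled against cognate and non-cognate.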
row,Variant,one-hybrid fitness for binding parS DNA
1,RPPA,≤ 0.2
2,SWSC,≤ 0.2
3,AEPY,≤ 0.2
4,RKRG,0.851
5,ILNL,≤ 0.2
6,YART,≤ 0.2
7,AKDP,≤ 0.2
8,ILKW,≤ 0.2
9,EYWV,≤ 0.2
10,IRAC,≤ 0.2
11,QDQF,≤ 0.2
12,EAKC,≤ 0.2
13,VDLS,≤ 0.2
14,RKLL,≤ 0.2
15,NAAI,≤ 0.2
16,DRHH,≤ 0.2
17,SLNV,≤ 0.2
18,YGED,≤ 0.2
19,PYVS,≤ 0.2
20,RIWV,≤ 0.2
21,PAAF,≤ 0.2
22,QLVI,≤ 0.2
23,LGRP,≤ 0.2
24,CTMP,≤ 0.2

row,Variant,one-hybrid fitness for binding parS DNA
1,PCTT,≤ 0.2
2,RHGN,0.363
3,CIRN,≤ 0.2
4,WSLT,≤ 0.2
5,CWRS,≤ 0.2
6,KYTC,≤ 0.2
7,PNYI,≤ 0.2
8,DYPG,≤ 0.2
9,PKHP,≤ 0.2
10,LYCE,≤ 0.2
11,LAPF,≤ 0.2
12,RGPM,≤ 0.2
13,KARG,≤ 0.2
14,PYGL,≤ 0.2
15,CECW,≤ 0.2
16,TPNC,≤ 0.2
17,KPRF,≤ 0.2
18,VNAM,≤ 0.2
19,LVVL,≤ 0.2
20,KHTY,≤ 0.2
21,YKGS,≤ 0.2
22,GEMY,≤ 0.2
23,SPWR,≤ 0.2
24,YSDE,≤ 0.2

row,Variant,one-hybrid fitness for binding parS DNA
1,QWSV,≤ 0.2
2,QLIN,≤ 0.2
3,FIVS,≤ 0.2
4,LSWY,≤ 0.2
5,NVAT,≤ 0.2
6,MCRV,≤ 0.2
7,RNEQ,≤ 0.2
8,MHDC,≤ 0.2
9,RTVF,≤ 0.2
10,DPPA,≤ 0.2
11,SMTP,≤ 0.2
12,LTMC,≤ 0.2
13,PCPF,≤ 0.2
14,VSAT,≤ 0.2
15,NQPA,≤ 0.2
16,DPDC,≤ 0.2
17,PRLQ,≤ 0.2
18,NQNY,≤ 0.2
19,AYIY,0.265
20,HSTF,≤ 0.2
21,RALG,1.01
22,RPQI,≤ 0.2
23,DWFI,≤ 0.2
24,VMSD,≤ 0.2

row,Variant,one-hybrid fitness for binding parS DNA
1,WSDT,≤ 0.2
2,SLRK,≤ 0.2
3,PGCP,≤ 0.2
4,KCER,≤ 0.2
5,VWAI,≤ 0.2
6,HLFT,≤ 0.2
7,RSGW,0.233
8,MALK,≤ 0.2
9,SSNS,≤ 0.2
10,SAFC,≤ 0.2
11,PVFC,≤ 0.2
12,PQLL,≤ 0.2
13,YHQE,≤ 0.2
14,TASP,≤ 0.2
15,QHMW,≤ 0.2
16,MSDF,≤ 0.2
17,ADPT,≤ 0.2
18,WFCS,≤ 0.2
19,QKTQ,≤ 0.2
20,HIPW,≤ 0.2
21,KKTD,≤ 0.2
22,HCCS,≤ 0.2
23,SVTQ,≤ 0.2
24,WGPG,≤ 0.2

row,Variant,one-hybrid fitness for binding parS DNA
1,WTAY,≤ 0.2
2,TTTL,≤ 0.2
3,QPTI,≤ 0.2
4,YNVP,≤ 0.2
5,SAPM,≤ 0.2
6,RRLR,≤ 0.2
7,DECI,≤ 0.2
8,WAYA,≤ 0.2
9,KTKP,≤ 0.2
10,PPEF,≤ 0.2
11,TSMC,≤ 0.2
12,ASFC,≤ 0.2
13,GQSC,≤ 0.2
14,CRYV,≤ 0.2
15,RCPT,0.604
16,YWNG,≤ 0.2
17,SIPA,≤ 0.2
18,YAKD,≤ 0.2
19,WDPS,≤ 0.2
20,CVAV,≤ 0.2
21,NRML,≤ 0.2
22,FMPR,≤ 0.2
23,TVKR,≤ 0.2
24,HKHG,≤ 0.2

row,Variant,one-hybrid fitness for binding parS DNA
1,NVCL,≤ 0.2
2,WCAR,≤ 0.2
3,STGK,≤ 0.2
4,QVKN,≤ 0.2
5,LSWV,≤ 0.2
6,LPKR,≤ 0.2
7,GVFG,≤ 0.2
8,QALY,≤ 0.2
9,QMNE,≤ 0.2
10,KGFY,≤ 0.2
11,GYLV,≤ 0.2
12,STNC,≤ 0.2
13,TEKT,≤ 0.2
14,CMEW,≤ 0.2
15,VKTS,≤ 0.2
16,HTGF,≤ 0.2
17,VFMS,≤ 0.2
18,LYCC,≤ 0.2
19,NDDS,≤ 0.2
20,LDSW,≤ 0.2
21,RDRI,≤ 0.2
22,QKQW,≤ 0.2
23,ISHL,≤ 0.2
24,RVDS,0.974

row,Variant,one-hybrid fitness for binding parS DNA
1,SFYR,≤ 0.2
2,AKWR,≤ 0.2
3,KRPH,≤ 0.2
4,EMND,≤ 0.2
5,RRCA,0.761
6,SKLG,≤ 0.2
7,SDNL,≤ 0.2
8,PRHM,≤ 0.2
9,IIKC,≤ 0.2
10,LDHG,≤ 0.2
11,YYSY,≤ 0.2
12,TTFG,≤ 0.2
13,EEPR,≤ 0.2
14,AAWL,≤ 0.2
15,WMWG,≤ 0.2
16,CCRY,≤ 0.2
17,PACD,≤ 0.2
18,YAKF,≤ 0.2
19,RCSP,≤ 0.2
20,TEKR,≤ 0.2
21,DKGG,≤ 0.2
22,VPLV,≤ 0.2
23,GARE,≤ 0.2
24,NRTP,≤ 0.2

row,Variant,one-hybrid fitness for binding parS DNA
1,CFYS,≤ 0.2
2,SHEV,≤ 0.2
3,SVGS,≤ 0.2
4,THAM,≤ 0.2
5,QMHW,≤ 0.2
6,GPPL,≤ 0.2
7,ASLV,≤ 0.2
8,NQSG,≤ 0.2
9,RYPW,≤ 0.2
10,MECV,≤ 0.2
11,WLSD,≤ 0.2
12,DLGA,≤ 0.2
13,GTVK,≤ 0.2
14,QDLY,≤ 0.2
15,PHGP,≤ 0.2
16,QHIF,≤ 0.2
17,SWTT,≤ 0.2
18,WQKG,≤ 0.2
19,RFGI,≤ 0.2
20,HWPG,≤ 0.2
21,IIGG,≤ 0.2
22,NNMG,≤ 0.2
23,CFLY,≤ 0.2
24,ERRN,≤ 0.2

row,Variant,one-hybrid fitness for binding parS DNA
1,YHSG,≤ 0.2
2,FYFT,≤ 0.2
3,LKAG,≤ 0.2
4,DIIL,≤ 0.2
5,YQFT,≤ 0.2
6,GRGI,≤ 0.2
7,QTLE,≤ 0.2
8,NHHY,≤ 0.2
9,VSSL,≤ 0.2
10,YQNH,≤ 0.2
11,YYKW,≤ 0.2
12,IEPN,≤ 0.2
13,LMVR,≤ 0.2
14,DCYC,≤ 0.2
15,RPRL,≤ 0.2
16,HYAV,≤ 0.2
17,DMLS,≤ 0.2
18,HSSW,≤ 0.2
19,RQYI,≤ 0.2
20,NCEW,≤ 0.2
21,AQQK,≤ 0.2
22,PEQV,≤ 0.2
23,HEWG,≤ 0.2
24,TGDY,≤ 0.2

row,Variant,one-hybrid fitness for binding parS DNA
1,RFAE,≤ 0.2
2,YVST,≤ 0.2
3,PVYW,≤ 0.2
4,KQAV,≤ 0.2
5,TTKL,≤ 0.2
6,QSVI,≤ 0.2
7,LIPV,≤ 0.2
8,DNHP,≤ 0.2
9,TRGP,≤ 0.2
10,VRCK,≤ 0.2
11,RYER,≤ 0.2
12,SCDA,≤ 0.2
13,QMMR,≤ 0.2
14,LKPG,≤ 0.2
15,HELY,≤ 0.2
16,GPKM,≤ 0.2
17,AKSS,≤ 0.2
18,GETG,≤ 0.2
19,FWPP,≤ 0.2
20,EDQY,0.399
21,VWLG,≤ 0.2
22,QYVS,≤ 0.2
23,VVRT,≤ 0.2
24,TVFC,≤ 0.2

row,Variant,one-hybrid fitness for binding parS DNA
1,STYK,≤ 0.2
2,KGPC,≤ 0.2
3,MAAF,≤ 0.2
4,EYNG,≤ 0.2
5,IRIE,≤ 0.2
6,MTDI,≤ 0.2
7,ETLI,≤ 0.2
8,QNFS,≤ 0.2
9,APVC,≤ 0.2
10,HDMG,≤ 0.2
11,LILC,≤ 0.2
12,WPGL,≤ 0.2
13,LAKA,≤ 0.2
14,FVNR,≤ 0.2
15,GSYG,≤ 0.2
16,NYLT,≤ 0.2
17,KMNS,≤ 0.2
18,IYVA,≤ 0.2
19,DPSY,≤ 0.2
20,FITI,≤ 0.2
21,HPEI,≤ 0.2
22,YCVC,≤ 0.2
23,MPHF,≤ 0.2
24,GPPW,≤ 0.2

row,Variant,one-hybrid fitness for binding parS DNA
1,NYMV,≤ 0.2
2,QDTV,≤ 0.2
3,WDFS,≤ 0.2
4,RQPI,≤ 0.2
5,PICT,≤ 0.2
6,QYEL,≤ 0.2
7,PEIA,≤ 0.2
8,KLTS,≤ 0.2
9,NQSM,≤ 0.2
10,SSLL,≤ 0.2
11,HTWA,≤ 0.2
12,CPRM,≤ 0.2
13,GRQR,≤ 0.2
14,RRTV,≤ 0.2
15,FGTG,≤ 0.2
16,TQHT,≤ 0.2
17,ADIL,≤ 0.2
18,MSNT,≤ 0.2
19,CKHA,≤ 0.2
20,PVCL,≤ 0.2
21,NHLR,≤ 0.2
22,YIWV,≤ 0.2
23,FPYG,≤ 0.2
24,QNMR,≤ 0.2

row,Variant,one-hybrid fitness for binding parS DNA
1,GHKV,≤ 0.2
2,GARV,≤ 0.2
3,GRMS,≤ 0.2
4,SKPK,≤ 0.2
5,RCDS,1.02
6,LGLW,≤ 0.2
7,HFER,≤ 0.2
8,TYDM,≤ 0.2
9,LRAW,≤ 0.2
10,CYVG,≤ 0.2
11,ASGV,≤ 0.2
12,SSRV,≤ 0.2
13,NAKG,≤ 0.2
14,LTNW,≤ 0.2
15,LTDR,≤ 0.2
16,LSID,≤ 0.2
17,KRSS,≤ 0.2
18,DMYT,≤ 0.2
